# According to paper PMC9911399, “Two distinct binding modes provide the RNA-binding protein RbFox with extraordinary sequence specificity”:
# Substitutions are numbered along the chain they refer to; changes in the protein carry UniProt numbers. The list shows a part of the results.
# T1: RBFOX1 RRM (Homo sapiens, UniProt Q9NWB1 109-208)
# T1 sequence: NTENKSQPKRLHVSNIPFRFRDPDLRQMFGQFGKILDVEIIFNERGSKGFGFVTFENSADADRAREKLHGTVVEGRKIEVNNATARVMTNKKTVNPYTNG
# B1: CACUGGG (DNA:RNA)
# RNA: GGGAGACCGGAAUUCAGAUUGUCCCACUGGGUUAAAUCCCGUCGUAGCCACCA
# DNA 1: CAATCTGAATTCCGGTCTCCC
# DNA 2: TGGTGGCTACGACGGGATT
# B2: CUGUGAA (DNA:RNA)
# RNA: B1 RNA with A26U, C27G, G30A, G31A
# DNA 1: CAATCTGAATTCCGGTCTCCC
# DNA 2: TGGTGGCTACGACGGGATT
# B3: UCAUCAA (DNA:RNA)
# RNA: B1 RNA with C25U, A26C, C27A, G29C, G30A, G31A
# DNA 1: CAATCTGAATTCCGGTCTCCC
# DNA 2: TGGTGGCTACGACGGGATT
# B4: GCCGGGG (DNA:RNA)
# RNA: B1 RNA with C25G, A26C, U28G
# DNA 1: CAATCTGAATTCCGGTCTCCC
# DNA 2: TGGTGGCTACGACGGGATT
# B5: GUGCAGA (DNA:RNA)
# RNA: B1 RNA with C25G, A26U, C27G, U28C, G29A, G31A
# DNA 1: CAATCTGAATTCCGGTCTCCC
# DNA 2: TGGTGGCTACGACGGGATT
# B6: CUCGGAA (DNA:RNA)
# RNA: B1 RNA with A26U, U28G, G30A, G31A
# DNA 1: CAATCTGAATTCCGGTCTCCC
# DNA 2: TGGTGGCTACGACGGGATT
# B7: GAAUCCC (DNA:RNA)
# RNA: B1 RNA with C25G, C27A, G29C, G30C, G31C
# DNA 1: CAATCTGAATTCCGGTCTCCC
# DNA 2: TGGTGGCTACGACGGGATT
# B8: CCUUUUU (DNA:RNA)
# RNA: B1 RNA with A26C, C27U, G29U, G30U, G31U
# DNA 1: CAATCTGAATTCCGGTCTCCC
# DNA 2: TGGTGGCTACGACGGGATT
# B9: UCCUGAA (DNA:RNA)
# RNA: B1 RNA with C25U, A26C, G30A, G31A
# DNA 1: CAATCTGAATTCCGGTCTCCC
# DNA 2: TGGTGGCTACGACGGGATT
# B10: GGUUUUG (DNA:RNA)
# RNA: B1 RNA with C25G, A26G, C27U, G29U, G30U
# DNA 1: CAATCTGAATTCCGGTCTCCC
# DNA 2: TGGTGGCTACGACGGGATT
# B11: CAAUCGU (DNA:RNA)
# RNA: B1 RNA with C27A, G29C, G31U
# DNA 1: CAATCTGAATTCCGGTCTCCC
# DNA 2: TGGTGGCTACGACGGGATT
# B12: GUUGUCA (DNA:RNA)
# RNA: GGGAGACCGGAAUUCAGAUUGUCCGUUGUCAUUAAAUCCCGUCGUAGCCACCA
# DNA 1: CAATCTGAATTCCGGTCTCCC
# DNA 2: TGGTGGCTACGACGGGATT
# B13: AUAAGAU (DNA:RNA)
# RNA: B1 RNA with C25A, A26U, C27A, U28A, G30A, G31U
# DNA 1: CAATCTGAATTCCGGTCTCCC
# DNA 2: TGGTGGCTACGACGGGATT
# B14: AACAAGU (DNA:RNA)
# RNA: B1 RNA with C25A, U28A, G29A, G31U
# DNA 1: CAATCTGAATTCCGGTCTCCC
# DNA 2: TGGTGGCTACGACGGGATT
# B15: CGUCGGU (DNA:RNA)
# RNA: B1 RNA with A26G, C27U, U28C, G31U
# DNA 1: CAATCTGAATTCCGGTCTCCC
# DNA 2: TGGTGGCTACGACGGGATT
# B16: GAAACAU (DNA:RNA)
# RNA: B1 RNA with C25G, C27A, U28A, G29C, G30A, G31U
# DNA 1: CAATCTGAATTCCGGTCTCCC
# DNA 2: TGGTGGCTACGACGGGATT
# B17: UUAUGCA (DNA:RNA)
# RNA: B12 RNA with G25U, U27A, G28U, U29G
# DNA 1: CAATCTGAATTCCGGTCTCCC
# DNA 2: TGGTGGCTACGACGGGATT
# B18: GGAUCGU (DNA:RNA)
# RNA: B1 RNA with C25G, A26G, C27A, G29C, G31U
# DNA 1: CAATCTGAATTCCGGTCTCCC
# DNA 2: TGGTGGCTACGACGGGATT
# B19: AUUAAUA (DNA:RNA)
# RNA: B12 RNA with G25A, G28A, U29A, C30U
# DNA 1: CAATCTGAATTCCGGTCTCCC
# DNA 2: TGGTGGCTACGACGGGATT
# B20: UCACGAG (DNA:RNA)
# RNA: B1 RNA with C25U, A26C, C27A, U28C, G30A
# DNA 1: CAATCTGAATTCCGGTCTCCC
# DNA 2: TGGTGGCTACGACGGGATT
# B21: UCGCUGC (DNA:RNA)
# RNA: B1 RNA with C25U, A26C, C27G, U28C, G29U, G31C
# DNA 1: CAATCTGAATTCCGGTCTCCC
# DNA 2: TGGTGGCTACGACGGGATT
# B22: AAUAGAG (DNA:RNA)
# RNA: B1 RNA with C25A, C27U, U28A, G30A
# DNA 1: CAATCTGAATTCCGGTCTCCC
# DNA 2: TGGTGGCTACGACGGGATT
# B23: CUAUUUU (DNA:RNA)
# RNA: B1 RNA with A26U, C27A, G29U, G30U, G31U
# DNA 1: CAATCTGAATTCCGGTCTCCC
# DNA 2: TGGTGGCTACGACGGGATT
# B24: AACCAGC (DNA:RNA)
# RNA: B1 RNA with C25A, U28C, G29A, G31C
# DNA 1: CAATCTGAATTCCGGTCTCCC
# DNA 2: TGGTGGCTACGACGGGATT
# B25: CUAGAAU (DNA:RNA)
# RNA: B12 RNA with G25C, U27A, U29A, C30A, A31U
# DNA 1: CAATCTGAATTCCGGTCTCCC
# DNA 2: TGGTGGCTACGACGGGATT
# B26: CGCAUUC (DNA:RNA)
# RNA: B1 RNA with A26G, U28A, G29U, G30U, G31C
# DNA 1: CAATCTGAATTCCGGTCTCCC
# DNA 2: TGGTGGCTACGACGGGATT
# B27: GAUUUUG (DNA:RNA)
# RNA: B1 RNA with C25G, C27U, G29U, G30U
# DNA 1: CAATCTGAATTCCGGTCTCCC
# DNA 2: TGGTGGCTACGACGGGATT
# B28: UAUUGCU (DNA:RNA)
# RNA: B1 RNA with C25U, C27U, G30C, G31U
# DNA 1: CAATCTGAATTCCGGTCTCCC
# DNA 2: TGGTGGCTACGACGGGATT
# B29: UCCUUUU (DNA:RNA)
# RNA: B1 RNA with C25U, A26C, G29U, G30U, G31U
# DNA 1: CAATCTGAATTCCGGTCTCCC
# DNA 2: TGGTGGCTACGACGGGATT
# B30: GCGGGAU (DNA:RNA)
# RNA: B12 RNA with U26C, U27G, U29G, C30A, A31U
# DNA 1: CAATCTGAATTCCGGTCTCCC
# DNA 2: TGGTGGCTACGACGGGATT
# B31: CGGCUUC (DNA:RNA)
# RNA: B1 RNA with A26G, C27G, U28C, G29U, G30U, G31C
# DNA 1: CAATCTGAATTCCGGTCTCCC
# DNA 2: TGGTGGCTACGACGGGATT
# Target: T1, RBFOX1 RRM
# Assay: EMSA; HiTS-Eq, 1 nM pool, 10 min; buffer printed only for the single-RNA assays: 10 mM Tris pH 7.5, 150 mM NaCl, 3.4 mM EDTA, 0.001% NP-40, 30 C
# Conditions: tags: His6 N-terminal (pET28a); label: 5' 32P
# How it was run: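 These values rest on relative association constants, computed from read-count changes of each RNA species versus the control reaction and normalised to the cognate motif. Reads came from free RNA recovered by 8% native PAGE after purified RbFox RRM (wild type or mutant) at increasing concentrations was equilibrated for 10 min in 50 µL with 1 nM of a 5′-radiolabelled pool with 7 randomized nucleotides and DNA-annealed flanks.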
row,Binder,binding signal
1,B1,0.0063 KA relative to UGCAUGU
2,B2,0.0116 KA relative to UGCAUGU
3,B3,0.00154 KA relative to UGCAUGU
4,B4,0.0252 KA relative to UGCAUGU
5,B5,0.0216 KA relative to UGCAUGU
6,B6,0.00851 KA relative to UGCAUGU
7,B7,0.0102 KA relative to UGCAUGU
8,B8,0.00705 KA relative to UGCAUGU
9,B9,0.0155 KA relative to UGCAUGU
10,B10,0.0205 KA relative to UGCAUGU
11,B11,0.00595 KA relative to UGCAUGU
12,B12,0.0142 KA relative to UGCAUGU
13,B13,0.00408 KA relative to UGCAUGU
14,B14,0.00231 KA relative to UGCAUGU
15,B15,0.0152 KA relative to UGCAUGU
16,B16,0.0042 KA relative to UGCAUGU

row,Binder,binding signal
1,B17,0.0183 KA relative to UGCAUGU
2,B18,0.0112 KA relative to UGCAUGU
3,B19,0.00218 KA relative to UGCAUGU
4,B20,0.0108 KA relative to UGCAUGU
5,B21,0.0198 KA relative to UGCAUGU
6,B22,0.00685 KA relative to UGCAUGU
7,B23,0.00632 KA relative to UGCAUGU
8,B24,0.000821 KA relative to UGCAUGU
9,B25,0.00687 KA relative to UGCAUGU
10,B26,0.0132 KA relative to UGCAUGU
11,B27,0.0202 KA relative to UGCAUGU
12,B28,0.0153 KA relative to UGCAUGU
13,B29,0.0102 KA relative to UGCAUGU
14,B30,0.0486 KA relative to UGCAUGU
15,B31,0.0146 KA relative to UGCAUGU
